Several values for one entry are separate records, joined by “and”; a condition that tells them apart may be missing. Identical values can stand only once. This is one part of the list. Further columns of the screen follow, without active or inactive calls.
Experiments:
Test in all cases: Primary Screen for Target Class Profiling of Small Molecule Inhibitors of Methyltransferases
[1] = molecular target: Glycine N-methyltransferase (Homo sapiens) (UniProt Q14749); conditions: purified enzyme, MTase-Glo SAH luminescence; measured here: GNMT inhibition; at 40 µM; stronger effect = lower value
How it was run: (§1)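 Each enzyme was reacted with SAM and its substrate, with compounds tested once at 40 uM; SAH formed was read by MTase-Glo luminescence.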

[2] = molecular target: Guanidinoacetate N-methyltransferase (Homo sapiens) (UniProt Q14353); conditions: purified enzyme, MTase-Glo SAH luminescence; measured here: GAMT inhibition; at 40 µM; stronger effect = lower value
How it was run: as §1

[3] = molecular target: Histamine N-methyltransferase (Homo sapiens) (UniProt P50135); conditions: purified enzyme, MTase-Glo SAH luminescence; measured here: HNMT inhibition; at 40 µM; stronger effect = lower value
How it was run: as §1

[4] = molecular target: Nicotinamide N-methyltransferase (Homo sapiens) (UniProt P40261); conditions: purified enzyme, MTase-Glo SAH luminescence; measured here: NNMT inhibition; at 40 µM; stronger effect = lower value
How it was run: as §1

[5] = molecular target: Phenylethanolamine N-methyltransferase (Homo sapiens) (UniProt P11086); conditions: purified enzyme, MTase-Glo SAH luminescence; measured here: PNMT inhibition; at 40 µM; stronger effect = lower value
How it was run: as §1
% is set by controls: 0 for no effect and ±100 for the full control effect.

SMILES | activity change, negative = inhibition [1] | activity change, negative = inhibition [2] [%] | activity change, negative = inhibition [3] | activity change, negative = inhibition [4] | activity change, negative = inhibition [5]
O=C(Nc1ccc(F)cc1)N1CCn2cccc2C1Cc1ccccc1 (stereo not given) | -4.76% | 0 | 4.09% | -0.906% | 0.683%
O=C1COc2ccc(N3CCCC3)nc2CN1Cc1ccc(C(F)(F)F)cc1 | -15.2% | -6.17 | -18.6% | -26.5% | -0.764%
CCCNC(=O)N1CCC(n2c(C)cnc2C2CCOCC2)CC1 | 1.62% | 4.62 | 4.32% | -7.88% | 16.1%
CCc1ccc(C(=O)N2CC(c3nnc(C(C)C)o3)C3(CCOCC3)C2)cc1 (stereo not given) | -2.06% | -2.75 | -0.009% | -12.4% | -3.27%
CCc1ccc(NC(=O)CSc2nnc3[nH]c(=O)c(Cc4ccc(C)cc4)nn23)cc1 | -5.29% | -0.171 | -12.3% | -15.9% | -10.8%
C/C=C/C=C/C=C/C(=O)OC1C=C(C=O)C(O)(C(=O)O)C2(C)CCCC(C)(C)C12 (stereo not given) | -1.98% | -8.26 | 6.71% | -19.8% | -10.1%
Cc1ccc(NC(=O)[C@@H]2CNC[C@H](C(=O)NCc3ccccn3)C2)cn1 | -4.42% | 1.13 | 0.834% | -9.24% | 10.6%
O=C(NC1CCCC1)c1cc2cn(C3CC3)cc2s1 | -13.9% | -2.93 | -4.02% | -4.9% | -11.2%
CCOc1ccccc1CN1C(=O)c2cc3oc(C)cc3n2CC1(C)C(=O)NC1CCCCC1 (stereo not given) | -1.58% | 1.54 | 2.77% | -8.66% | -0.173%
CC(=O)NNC(=O)N1Cc2ccccc2Oc2ccc(Cl)cc21 | -1.6% | 8.72 | 0.29% | -3.85% | 8.98%
OC1CCC(Nc2nc(-c3ccccc3)nc3[nH]ccc23)CC1 (stereo not given) | -3.92% | -7.5 | -5.42% | -16.8% | -39.1%
CC(C)c1nc2c(c(-c3ccc(O)cc3)n1)CN(Cc1cccn1C)CC2 | -8.45% | -0.837 | -1.99% | -4.95% | -11%
CCCn1c(=O)c2ccc(C(=O)NC(C)C)cc2n2c(SCC(=O)Nc3ccc(CC)cc3)nnc12 | 2.17% | 0 | 8.65% | -4.88% | -2.83%
CCOC(=O)c1cc2n(n1)CC(C)(C(=O)NC1CCCCCC1)N(Cc1cccc(C)c1)C2=O (stereo not given) | 5.38% | 1.87 | 1.5% | -1.3% | 4.58%
CC1(C(=O)NC2CCCCCC2)Cn2c(nc3ccccc32)C(=O)N1CCc1ccccc1 (stereo not given) | 4.01% | 0 | 5.74% | 4.02% | 1.88%
CC1(C(=O)NCc2ccccc2)Cn2cnc(C(=O)NCCc3ccco3)c2C(=O)N1C1CC1 (stereo not given) | -2.98% | 3.41 | -4.57% | -3.12% | -1.83%
Cc1ccc(NS(=O)(=O)c2ccc3c(c2)CCC(=O)N3)cc1C | – | 2.77 | – | -11.9% | 1.07%
CC[C@H]1OC(=O)[C@H](C)[C@@H](O[C@H]2C[C@@](C)(OC)[C@@H](O)[C@H](C)O2)[C@H](C)[C@@H](O[C@@H]2O[C@H](C)C[C@H](NC)[C@H]2O)[C@](C)(O)C[C@@H](C)CN(C)[C@H](C)[C@@H](O)[C@]1(C)O | 5.66% | 8.46 | 4.62% | -1.93% | 10.5%
CC(C)CCn1c(=O)c2ccc(C(=O)NCC(C)C)cc2n2c(=O)n(Cc3cccc(F)c3)nc12 | 4.79% | 0.449 | 4.16% | 2.67% | 4.31%
Cn1nc(C2CCN(C(=O)c3ccccn3)CC2)c2c1CCOC2 | -0.444% | -4.5 | 2.14% | -3.72% | 0.69%

SMILES | activity change, negative = inhibition [1] | activity change, negative = inhibition [2] [%] | activity change, negative = inhibition [3] | activity change, negative = inhibition [4] | activity change, negative = inhibition [5]
COc1ccccc1CNC(=O)C1(C)Cn2nc(-c3ccccc3)cc2C(=O)N1c1ccccc1F (stereo not given) | 4.11% | 1.32 | 7.68% | 7.67% | 2.19%
CCC(C)NC(=O)c1ccc2c(=O)n(C(C)C)c3nn(CC(=O)Nc4ccccc4Cl)c(=O)n3c2c1 (stereo not given) | 2.17% | 1.22 | -1.58% | -0.771% | -6.19%
COc1cccc(CN2Cc3cc(NC(=O)Cc4ccccc4)ccc3OCC2=O)c1 | -4.12% | -0.808 | -14.5% | -9.09% | -0.531%
CC(C)OCCCn1c(=O)c2ccccc2n2c(SCc3cccc(F)c3)nnc12 | -6.08% | 0.655 | 3.25% | -1.36% | 2.25%
CNC[C@H](O)c1cccc(O)c1 | 1.8% | 13 | 1.03% | -2.01% | 5.16%
CC(C)C(=O)N1CCC2(CCC(=O)N(CC3CC3)CC2)CC1 | 0.363% | 0.501 | 0.513% | -0.475% | 1.22%
N=C(N)SCCc1cnc[nH]1 | 4.84% | 12.1 | -24.9% | -6.22% | -3.43%
CN(C)S(=O)(=O)N1CC(CNC(=O)C2CC2)C2(CCCCC2)C1 (stereo not given) | 1.83% | -3.75 | -0.261% | -1.84% | -3.21%
FC(F)(F)CN1C2CCC1CN(c1cncc(Cl)n1)C2 | -4.81% | -2.51 | -2.27% | -8.26% | -1.72%
O=C(Nc1ccccc1)O[C@@H]1CO[C@H]2[C@@H]1OC[C@@H]2NC(=S)Nc1ccc(F)cc1 | -2.95% | -0.726 | 1.17% | -2.45% | -2.65%
CCOc1ccn(-c2ccc(F)cc2)c(=O)c1C(=O)Nc1ccc(Oc2ccnc(N)c2Cl)c(F)c1 | -0.699% | 5.84 | 8.69% | -22% | 2.51%
CCC(=O)NS(=O)(=O)c1ccc(-c2c(-c3ccccc3)noc2C)cc1 | 7.18% | 0.248 | 12.2% | -14.6% | 1.65%
Cc1ccc(C(=O)N2CCCCCNC(=O)CC2c2ccccc2)s1 (stereo not given) | -0.72% | 0.303 | 1.71% | -7.82% | -0.467%
COCCc1ccc(OCc2ccccc2-c2ccc(=O)n(C)n2)cc1 | -5.97% | -11.6 | -5.22% | -13.6% | -10.4%
O=C(NCCCc1ccccc1)c1cccc(-c2cc(O)c3ncccc3c2)c1 | 7.24% and -0.793% | -26.5 | 8.37% and 3.95% | -8.14% and -38.5% | -8.03% and -11.2%
CCn1cc(-c2ccnc3[nH]c(-c4cccc(CN(C)C)c4)cc23)c(-c2ccc(NC(=O)N(C)C)cc2)n1 | -20.5% and -17.8% | -4.78 | -73% and -75.1% | 0.96% and -24.2% | 32.3% and -20.9%
Cc1nc(Nc2n[nH]c3c2CN(C(=O)N[C@H](CN(C)C)c2ccccc2)C3(C)C)c2sccc2n1 | -3.67% | 3.92 | -54.4% | -33.9% | 1.6%
CC(C)(F)C[C@@H](N[C@@H](c1ccc(-c2ccc(S(C)(=O)=O)cc2)cc1)C(F)(F)F)C(=O)NC1(C#N)CC1 | 4.58% | – | 7.86% | – | –
CC1(C(=O)NC2CCCC2)Cn2c(ccc2-c2ccco2)C(=O)N1CCCN1CCCCC1 (stereo not given) | 3.77% | 0.642 | -3.04% | 9.17% | 1.96%
